Some of the results follow. Many values rest on one well or one pass, so single values are uncertain.
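Also: exons read include endogenous Mef2d, Mast2, Ergic3 and Trappc9 microexons plus the longer neural-regulated Zdhhc20, Mgrn1 and Asph cassette exons, alongside the reporter microexon.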

This assay has as its system Mast2 alternative exon (endogenous). In words: delta PSI of alternative exon relative to 0.4% DMSO control (RT-PCR) (percentage points); higher = more exon inclusion. The following applies: concentration: not stated (optimised per compound); Neuro-2a. The protocol: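 Reads PSI of the Mef2d reporter microexon and of endogenous mouse neural alternative exons. dPSI is relative to the 0.4% DMSO control, single replicate.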
As to `COc1ccc(/C=C/C=C2C(=O)NC(=O)NC2=O)cc1`, the “delta PSI of alternative exon” value is -1.09. The figure for `Cc1n[nH]c2ccc(-c3cncc(OC[C@@H](N)Cc4c[nH]c5ccccc45)c3)cc12` is 35.2; for `O=C1NC(=O)C(=CC=Cc2ccccc2)C(=O)N1` it is -0.612; for `CC(=O)OC(C)(C)C=CC(=O)[C@](C)(O)[C@H]1[C@H](O)C[C@@]2(C)[C@@H]3CC=C4[C@@H](CC[C@H](O)C4(C)C)[C@]3(CO)C(=O)C[C@]12C` it is 20.8.

Values taken from the supplement of paper PMC11283458.
